Measured values: PubChem BioAssay AID904 (National Center for Advancing Translational Sciences (NCATS), 2007)
The whole screen tested about 55,000 compounds, of which about 530 (0.96%) were called active. The shares of active, inactive and inconclusive entries below differ from those in the screen. The call rests on the fitted dose curve; in most records, active means well fitted cell-killing curve with a large enough effect; inconclusive means small, poorly fitted or top-dose-only effect; inactive means no such curve, though single readings can be large or run the other way. Potencies beside an inconclusive call are fits to weak or partial responses and may not hold up.

test: qHTS Screen for Compounds that Selectively Target Cancer Cells with p53 Mutations: Cytotoxicity of p53 Null Cells at the Nonpermissive Temperature; details: H1299 p53-null (neo) cells, 39C, ATPlite viability, 24 h; activity, negative = cell killing: at 46.1 µM (top of the series); further: nearly all actives have a fitted effect of over 50% in size;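 on activity, negative = cell killing: 0% = DMSO only and -100% = full killing by 100 µM tamoxifen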
Outline: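 Temperature-shift cytotoxicity format: compound titrations on p53-null or A138V-expressing H1299 cells held 24 hr at 39C, cell ATP then measured, AC50 from Hill model.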
Potency means the concentration at half of the fitted maximal effect; tags describe the fitted curve by direction and shape.

Structure (SMILES)	Potency	activity, negative = cell killing
COc1cc(OC)cc(-c2nc(-c3cccc(C)c3)no2)c1	inconclusive: 5.01 µM [cytotoxic, partial curve]	
COc1ccc(N2CCN(C(CNC(=O)C(=O)NCCc3ccccc3)c3cccnc3)CC2)cc1 (stereo unspecified)	inconclusive: 0.01 µM [cytotoxic, full curve, poor fit]	
Cc1ccc(CNCc2ccccc2)s1	inconclusive: 0.0631 µM [cytotoxic, full curve]	
O=C(Cc1cc(=O)[nH]c(=O)[nH]1)N1CCN(C(=O)c2ccco2)CC1	inconclusive: 0.0141 µM [cytotoxic, full curve, poor fit]	
Cc1ccc(NC(=O)CSc2ncc3c(n2)-c2ccc(Cl)cc2N(C)S3(=O)=O)cc1F		inactive: -2.97%
Cc1ccc(Cn2c(SCc3ccc(C(=O)N4CCCCCC4)cc3)nc3ccncc32)cc1		inactive: -6.47%
Cc1nc2c(C(=O)NCCc3ccc(Cl)cc3)c[nH]n2c(=O)c1Cc1ccc(Cl)cc1	active: 20 µM	
CC(C)(C)c1ccc(OCCn2cc(C(=O)c3ccco3)c3ccccc32)cc1	inconclusive: 10 µM [cytotoxic, partial curve]	
CCn1cc(C(=O)N2CCN(c3ccc(F)cc3)CC2)c(=O)c2cc(S(=O)(=O)N(C)C3CCCCC3)ccc21	inconclusive: 20 µM [cytotoxic, single point]	
CN(C)c1ccc(-n2c(CCC(=O)O)ccc2-c2ccccc2)cc1	inconclusive: 3.98 µM [cytotoxic, partial curve]	
Cc1ccc(C2=CC(c3ccccc3F)n3c(nc4ccccc43)N2)cc1C (stereo unspecified)	inconclusive: 14.1 µM [cytotoxic, single point]	
Cc1ccc2nc3sc(C(=O)NCc4ccco4)c(N)c3cc2c1	inconclusive: 17.8 µM [cytotoxic, single point]	
O=C(CSc1nnc(-c2ccccc2Cl)o1)N1CCCc2ccccc21	inconclusive: 7.08 µM [cytotoxic, partial curve, poor fit]	
Cc1ccc(S(=O)(=O)c2c(O)cc(C)c(NS(=O)(=O)c3ccc(Br)cc3)c2C)cc1	inconclusive: 35.5 µM [cytotoxic, single point]	
CCOc1ccccc1NC(=O)CSc1nnc2[nH]c(=O)cc(C)n12	inconclusive: 1.58 µM [cytotoxic, partial curve, poor fit]	
CC(=O)N1c2ccccc2C(=O)C1N1CCN(c2ccccc2F)CC1 (stereo unspecified)	inconclusive: 0.0079 µM [cytotoxic, full curve, poor fit]	
Cc1ccc(CSc2nc3cccnc3n2Cc2ccc(C(=O)NCc3ccco3)cc2)cc1	inconclusive: 7.94 µM [cytotoxic, partial curve]	
Cc1cccc(-c2nc(CN3CCCC(C(=O)N4CCN(c5cc(Cl)ccc5C)CC4)C3)c(C)o2)c1 (stereo unspecified)	inconclusive: 15.8 µM [cytotoxic, single point]	
COc1ccc(NC(=O)c2c(C)oc3ccc(O)c(CN4CCC(C)CC4)c23)cc1Cl	inconclusive: 20 µM [cytotoxic, single point]	
Cc1ccc(Nc2c(-c3c[nH]c4ccccc34)nc3ccccn23)cc1	active: 14.1 µM	
CCOC(=O)C(CC)n1nnc2sc(-c3ccccc3)cc2c1=O (stereo unspecified)		inconclusive: -41.6% [cytotoxic]
COc1ccc(NC(=O)CN2C(=O)CC(c3ccc(C)c(C)c3)=Nc3ccccc32)cc1OC	inconclusive: 2.82 µM [cytotoxic, partial curve]	
CCCCCOc1ccc(/C=C/C(=O)Nc2sc(C)c(C)c2C(=O)OCC)cc1OC		inactive: 14.2%

Structure (SMILES)	Potency	activity, negative = cell killing
Cc1c(Cl)cccc1NC(=O)CN1CCN(CCO)CC1		inactive: 18.8%
CC1CCN(c2nn3c(=O)c(C(=O)NCCCOC(C)C)cnc3s2)CC1	inconclusive: 3.98 µM [cytotoxic, single point]	
COc1ccc(CCNC(=O)CCn2c(=O)c3ccccc3n(Cc3ccccc3F)c2=O)cc1OC	inconclusive: 31.6 µM [cytotoxic, single point]	
CCOCCCNC(=O)c1ccc(-n2c(-c3ccccc3)cc3c2CCCC3)cc1		inactive: 24.7%
CCCC(O)c1nc2ccccc2n1CCCOc1ccc(Cl)cc1 (stereo unspecified)		inactive: 6.89%
Cc1cc(Cl)ccc1NC(=S)N1CCN(Cc2ccccc2)CC1		inactive: 14.3% [at 1.84 µM]
Cc1nn(-c2ccccc2)c(Cl)c1/C=C/C(=O)c1ccc(O)cc1		inactive: 23.1%
CCc1ccc(OCC(=O)N(Cc2ccc(C(C)C)cc2)C2CCS(=O)(=O)C2)cc1 (stereo unspecified)	inconclusive: 20 µM [cytotoxic, single point]	
Cc1ccc2c(CC(=O)N(Cc3ccc(N(C)C)cc3)Cc3ccco3)coc2c1C		inactive: 55.3%
CC(C)Cn1cc(NC(=O)N2CCN(c3cccc(C(F)(F)F)c3)CC2)c2ccccc2c1=O		inactive: -10.6%
Cc1cccc2nc(-c3ccccn3)c(Nc3ccccc3)n12	inconclusive: 3.98 µM [cytotoxic, full curve, poor fit]	
Cc1ccc(-c2nc(CSc3nnc(C)n4c3cc3occc34)c(C)o2)cc1	inconclusive: 0.0032 µM [cytotoxic, full curve, poor fit]	
CC(=O)Nc1ccc(S(=O)(=O)CCC#N)cc1	inconclusive: 15.8 µM [cytotoxic, partial curve, poor fit]	
CC1=C(C(=O)OC2CCCC2)C(c2c(F)cccc2Cl)CC(=O)N1 (stereo unspecified)		inactive: 9.42%
CCC(C)S(=O)(=O)c1oc(-c2cccs2)nc1S(=O)(=O)c1ccccc1 (stereo unspecified)	inconclusive: 3.16 µM [cytotoxic, single point]	
Cc1cccc(N2CCN(C(=O)C3CCN(C(=O)c4cc5sccc5n4C)CC3)CC2C)c1 (stereo unspecified)	inconclusive: 25.1 µM [cytotoxic, partial curve]	
O=C(Nc1cc(Cl)cc(Cl)c1)c1cc(S(=O)(=O)NC2CCCC2)ccc1F	inconclusive: 8.91 µM [cytotoxic, partial curve, poor fit]	
COCn1c(COc2ccc3ccccc3c2)nc2ccccc21	inconclusive: 12.6 µM [cytotoxic, single point]	
CCOCc1cc(CN2CCN(c3cccc(C(F)(F)F)c3)CC2)c(O)c2ncccc12	inconclusive: 0.794 µM [cytotoxic, full curve]	
COc1ccc(CNC(=O)c2ccc(Cn3c(=O)c4cccn4c4cccnc43)cc2)c(OC)c1	inconclusive: 0.794 µM [cytotoxic, partial curve]	
Cc1c(Cl)cccc1NC(=O)C(=O)NCCc1csc2nc(-c3ccccc3F)nn12	inconclusive: 12.6 µM [cytotoxic, partial curve]	
COc1ccc(-c2nc(CNC(=O)Nc3ccccc3)c(C)o2)c(OC)c1	inconclusive: 0.1 µM [cytotoxic, full curve, poor fit]	
CCOc1ccc(CNC(=O)Cn2c(=O)c3cccn3c3cccnc32)cc1	inconclusive: 0.158 µM [cytotoxic, full curve]	
